# Measurements as given in PubChem BioAssay AID588591 (National Center for Advancing Translational Sciences (NCATS), 2011).
# Out of some 390,000 compounds screened, about 4,700 (1.2%) were called active. The shares of active, inactive and inconclusive entries below differ from those in the screen. Calls follow the shape of the dose curve; as a rule, active = well fitted inhibition curve with a large enough effect; inconclusive = small, poorly fitted or top-dose-only effect, or another doubt; inactive = no such curve, though single readings can be large or run the other way. Where the call is inconclusive, the potency comes from a doubtful curve fit.
# Target: DNA polymerase eta (Homo sapiens) (UniProt Q9Y253)
# Test: qHTS for Inhibitors of Polymerase Eta
# Conditions: recombinant Pol eta, fluorescent DNA replication assay; series mostly up to 114 µM; activity change, negative = inhibition: at the top concentration
# Summary of the method: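 Fluorescent replication assay: 50 nM final substrate added after a 15 min room-temperature compound preincubation with 10 nM enzyme. Signal taken at 0 min and again at 10 min.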
# % is scaled to controls: 0 for no effect and ±100 for the full control effect; potency is read from the fitted curve at half-maximal effect; tags tell the direction and shape of the fitted curve.
# Chain of UniProt Q9Y253 (Q9Y253 whole entry, looked up): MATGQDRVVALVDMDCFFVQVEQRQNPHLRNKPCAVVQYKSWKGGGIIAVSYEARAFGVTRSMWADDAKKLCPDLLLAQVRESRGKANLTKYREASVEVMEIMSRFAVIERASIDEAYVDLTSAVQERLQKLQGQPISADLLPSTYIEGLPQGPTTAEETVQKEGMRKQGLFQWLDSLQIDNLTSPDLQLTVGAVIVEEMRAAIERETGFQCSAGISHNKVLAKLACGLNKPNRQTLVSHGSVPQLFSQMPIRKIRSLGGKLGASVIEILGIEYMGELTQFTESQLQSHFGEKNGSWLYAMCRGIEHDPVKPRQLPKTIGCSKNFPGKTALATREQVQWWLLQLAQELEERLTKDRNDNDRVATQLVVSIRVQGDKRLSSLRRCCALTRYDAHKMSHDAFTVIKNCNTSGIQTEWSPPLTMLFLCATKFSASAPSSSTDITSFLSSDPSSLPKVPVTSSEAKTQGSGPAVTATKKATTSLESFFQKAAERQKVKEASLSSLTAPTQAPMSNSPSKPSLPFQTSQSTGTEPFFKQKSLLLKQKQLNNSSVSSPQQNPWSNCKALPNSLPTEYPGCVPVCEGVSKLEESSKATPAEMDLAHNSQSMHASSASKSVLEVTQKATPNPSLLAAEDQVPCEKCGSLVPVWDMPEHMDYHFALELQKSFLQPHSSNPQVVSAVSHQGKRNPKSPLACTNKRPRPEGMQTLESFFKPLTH
SMILES,Potency,"activity change, negative = inhibition"
CCCC(C(=O)n1nc(C)cc1C)C(NS(=O)(=O)c1ccc(C)cc1)c1ccccc1 (stereo not drawn),"inconclusive: 79.4 µM [inhibitor, partial curve, poor fit]",–
O=c1cc(-c2ccc(O)c(-c3c(O)cc(O)c4c(=O)cc(-c5ccc(O)cc5)oc34)c2)oc2cc(O)cc(O)c12,active: 17.8 µM,–
CCOC(=O)c1c(C)[nH]c(CCC(=O)Nc2ccc(C)c(F)c2)c1C,–,inactive: -13.3%
COc1cc(C(=O)NCC(c2cccs2)S(=O)(=O)c2ccc(F)cc2)cc(OC)c1OC (stereo not drawn),–,inactive: -7.14%
COc1ccc(C)cc1NC(=O)COC(=O)CCC(=O)c1cccs1,–,inactive: -6.47%
O=C1CC2CC1C(C(=O)O)C2C(=O)O (stereo not drawn),"inconclusive: 28.2 µM [inhibitor, partial curve, poor fit]",–
Cc1cc(C(=O)Nc2ccccc2C(=O)O)ccc1NC(=O)COc1ccccc1Cl,"inconclusive: 8.91 µM [inhibitor, partial curve]",–
COc1ccc(C(=O)NCC(=O)OCC(=O)Nc2sccc2C#N)cc1OC,active: 50.1 µM,–
CC1=Nc2cc(C(=O)O)ccc2Sc2ccc(Br)cc21,active: 50.1 µM,–
Cc1nc2ccc(N=NC3=C(O)CCCC3=O)cc2s1,"inconclusive: 35.5 µM [inhibitor, partial curve, poor fit]",–
COc1ccc2[nH]c(C(=O)N/N=C/c3ccc(O)cc3O)cc2c1,"inconclusive: 20 µM [inhibitor, full curve]",–
CC1CCCC(C)N1C(=O)CSc1nnc(C2CCCCC2)o1 (stereo not drawn),"inconclusive: 89.1 µM [inhibitor, partial curve, poor fit]",–
Oc1c(CN2CCOCC2)cc(CN2CCOCC2)c(O)c1O,"inconclusive: 89.1 µM [inhibitor, partial curve, poor fit]",–
C#CCNC(=O)C1=C[C@H](c2ccc3c(c2)OCO3)C[C@H](OCCCCO)O1,active: 50.1 µM,–
CCOc1ccc(Br)cc1C1=NN(C(C)=O)C(c2ccc([N+](=O)[O-])s2)O1 (stereo not drawn),active: 50.1 µM,–
Cc1nc2nc(SCC(=O)NCc3ccco3)nn2c(C)c1Cc1ccccc1,active: 44.7 µM,–
COc1ccc(-n2cnnc2SCC(=O)c2cc(C)n(Cc3cccs3)c2C)cc1,"inconclusive: 39.8 µM [inhibitor, single point]",–
CCC(NC(=O)NCc1ccc2c(c1)OCO2)(C(F)(F)F)C(F)(F)F,"inconclusive: 50.1 µM [inhibitor, partial curve, poor fit]",–
O=c1cc(O)c2sc3nc(-c4cccnc4)cc(C(F)(F)F)c3c2[nH]1,"inconclusive: 12.6 µM [inhibitor, full curve, poor fit]",–
Cc1nc(C)c(C(=O)C2=C(O)C(=O)N(CCN3CCOCC3)C2c2ccco2)s1 (stereo not drawn),"inconclusive: 20 µM [inhibitor, partial curve, poor fit]",–
O=C(NCC1CCCO1)c1cc([N+](=O)[O-])ccc1N1CCC(Cc2ccccc2)CC1 (stereo not drawn),"inconclusive: 89.1 µM [inhibitor, partial curve, poor fit]",–
COc1ccc(OC)c(S(=O)(=O)Nc2ccc(O)c(Sc3ncn[nH]3)c2)c1,"inconclusive: 79.4 µM [inhibitor, partial curve]",–

SMILES,Potency,"activity change, negative = inhibition"
CCC(Sc1nncn2c1cc1occc12)C(=O)Nc1ccc(C)c(Cl)c1 (stereo not drawn),–,inactive: -1.41%
CCCNC(=O)c1ccc(N2CCC3(CC2)CC(c2ccccc2)=NO3)c([N+](=O)[O-])c1,"inconclusive: 79.4 µM [inhibitor, partial curve, poor fit]",–
Cc1ccc(C)c(S(=O)(=O)Nc2ccc(C(=O)NCC(c3ccco3)N(C)C)cc2)c1 (stereo not drawn),"inconclusive: 35.5 µM [inhibitor, partial curve, poor fit]",–
CC(NC(=O)CCCn1c(=O)c2cccn2c2cccnc21)c1ccccc1 (stereo not drawn),–,inactive: 3.52%
Cc1cc(-c2csc(NC(=O)c3ccc(C#N)cc3)n2)c(C)n1Cc1ccco1,"inconclusive: 89.1 µM [inhibitor, partial curve]",–
CCOc1ccc(-c2noc(CCC(=O)NC)n2)cc1OCC,"inconclusive: 7.08 µM [inhibitor, partial curve, poor fit]",–
CC(=O)N(C)/C=C1\Sc2ccccc2C1=O,–,inactive: -13.4%
O=C(OCc1ccccc1)c1ccc(NCc2cc(O)ccc2O)cc1,"inconclusive: 35.5 µM [inhibitor, partial curve]",–
COc1ccc(/C=N/Nc2ccccc2C(=O)O)cc1Cn1cc([N+](=O)[O-])cn1,–,inactive: -2.05%
CCOc1ccccc1-c1c2cc(O)c(=O)cc-2oc2cc(O)c(O)cc12,active: 28.2 µM,–
CC(=O)Oc1cccc(/C=c2\sc3nc(-c4ccco4)nn3c2=O)c1,active: 12.6 µM,–
O=C1Nc2ccc(Br)cc2C1(O)c1ccc(F)cc1 (stereo not drawn),"inconclusive: 25.1 µM [inhibitor, single point]",–
CC(C)N1C(=O)/C(=C\c2nc3ccccc3c(=O)[nH]2)c2ccccc21,"inconclusive: 14.1 µM [inhibitor, full curve, poor fit]",–
Cc1nnc(CN(C)C(=O)CC2C(=O)NCCN2Cc2ccccc2C)o1 (stereo not drawn),"inconclusive: 89.1 µM [inhibitor, partial curve, poor fit]",–
Cn1c2c(c(=O)[nH]c1=O)C(c1cccc(O)c1)C1=C(N2)c2ccccc2C1=O (stereo not drawn),"inconclusive: 25.1 µM [inhibitor, full curve]",–
CC(=O)Nc1ccc(Sc2ncnc3scc(-c4ccccc4)c23)cc1,"inconclusive: 8.91 µM [inhibitor, partial curve, poor fit]",–
Cc1ccc(-c2cc(C(=O)N/N=C/c3ccco3)[nH]n2)cc1,"inconclusive: 28.2 µM [inhibitor, single point]",–
CCOC(=O)c1cccc(NC(=O)CN2C(=O)CC(C)(C)Sc3ccccc32)c1,–,inactive: -23%
Cc1cc(C)n2c(SCC(O)=C(C#N)c3nc4ccccc4[nH]3)nnc2n1,active: 25.1 µM,–
CC1CCCCC12NC(=O)N(CC(=O)Nc1sccc1C(N)=O)C2=O (stereo not drawn),"inconclusive: 89.1 µM [inhibitor, single point]",–
C#CCOCCOCCOCCNc1nc(N2CCN(C(=O)CCCCCCCCCCNC(=O)[C@@H](CCSC)n3cc(CCO)nn3)CC2)nc(N2CCN(C(=O)CCCCCCCCCCNC(=O)[C@H]([C@@H](C)CC)n3cc(CCCCCN)nn3)CC2)n1,"inconclusive: 89.1 µM [inhibitor, partial curve]",–
